Reference: ChEMBL document CHEMBL4888484, “Replenishing the malaria drug discovery pipeline: Screening and hit evaluation of the MMV Hit Generation Library 1 (HGL1) against asexual blood stage Plasmodium falciparum ,using a nano luciferase reporter read-out” (2022)
Among all 150,000 compounds or so, about 540 (0.36%) showed an effect of 50% or more. The list shows a part of the results.

tested on: Plasmodium falciparum; test: Primary screen in NF54 nanoGlo assay, in single point, at 2uM, 72h; a lower Z score goes with more inhibition; format: functional, Erythrocyte; details: timepoint 72 hour

SMILES	% Inhibition [%]	Z score
C[C@@H](CNS(=O)(=O)C1CC1)NCc1ccc(C(=O)N(C)C)o1	-12	1.07
CC(=O)N1CCN(C(=O)c2cccs2)[C@H](C(=O)N[C@@H](CC2CCCCC2)C(N)=O)C1	26	-2.91
Cc1cc(NCCS(C)(=O)=O)nc(C2CCC2)n1	-6	1.06
COC[C@H](C)NC(=O)CS(=O)(=O)c1cc(F)ccc1F	2	-0.4
Cc1ccc(-n2cc(-c3noc(-c4cccc(N(C)C)c4)n3)nn2)cc1	-20	3.84
O=C(c1ccccc1Oc1ccccc1)N1CCO[C@]2(CNCCOC2)C1	5	-0.96
C[C@@H](Cn1cccn1)NC(=O)c1ccco1	-3	0.39
CCC(NC1CC(=O)N(CC(F)(F)F)C1)C(=O)OC (stereo unspecified)	-13	1.16
O=C(N[C@@H](CC1CCOCC1)c1ccccc1)C(F)F	-9	1.13
O=C(Cn1ccc(=O)c2sccc21)NC[C@H]1CCCO1	-5	0.53
COc1cc(NC(=O)[C@@H]2Cn3cccc3C(=O)N2)cc(OC)c1	-12	1.84
CCn1cc(C)c(C(=O)O)c1CC(=O)NCc1ccccc1Cl	-8	1.05
C#CCC(NC(=O)C(O)c1cc(Cl)cc(Cl)c1)C(N)=O (stereo unspecified)	-10	1.22
COCCn1c(N)c(N(Cc2ccccc2)C(=O)CCCc2c[nH]c3ccccc23)c(=O)[nH]c1=O	9	-1.47
Cc1ccc(Cl)cc1S(=O)(=O)N1CCCN(C2CCC2)CC1	-8	1.3
CCN1CCC(N(C(=O)Cc2ccccc2OC(C)C)C2CC2)CC1	-1	0.2
O=C(COC(=O)Cc1ccc(O)cc1Cl)NCC1CCCCC1	-9	1.82
COCCN1CCN([C@@H](C)C(=O)N(C)C(C)C)CC1=O	-5	0.65
Cn1nncc1CN[C@H]1CCCC[C@@H]1F	-20	2.34
Cc1noc(C)c1C(=O)NCC1CCN(Cc2cnc(-c3ccco3)nc2)CC1	8	-1.12
N#Cc1ccccc1Oc1ccc(C(=O)Nc2nnc[nH]2)cc1Cl	7	-0.82
CC1CCCc2ccccc2C1NS(=O)(=O)c1cnnn1C (stereo unspecified)	-1	0.06

SMILES	% Inhibition [%]	Z score
O=C1c2ccccc2N[C@]2(C(=O)Nc3cc(F)ccc32)N1C1CC1	7	-1.24
O=C(c1cccc(Oc2ccccc2)c1)N1[C@H]2CCNC[C@@H]1CC2	-13	1.22
Cc1ccc(Cl)c(NC(=O)Nc2csc3c2CCCC3)c1	2	-0.25
Cn1nnnc1-c1ccccc1NC(=O)C[C@H]1CCCO1	-8	1.19
CCOC(=O)Cc1c(C)nc2ncnn2c1N1CCC(C(=O)OCC)CC1	-9	1.18
O=C(Nc1nc2ccccc2s1)c1ccc(-n2cnnn2)cc1	-12	2.36
c1cncc(CNc2nc3cccnc3nc2NCc2cccnc2)c1	2	-0.21
CCCc1nnsc1C(=O)NCc1nccn1C(C)C	-12	1.88
O=c1ccc(F)cn1CCC1CCCC1	-1	0.12
CN(Cc1ncc[nH]1)c1nc2c(c(=O)[nH]1)Cc1ccccc1OC2	-15	1.9
Cc1cccc(=O)n1CCCNC(=O)[C@H](C)n1cncn1	-11	1.83
CCc1cn(CC(=O)Nc2ccc(N3CCOCC3)cc2)cn1	-1	0.07
CC[C@H]1CN(C(=O)c2cc(C)ncc2O)CCN1C	-14	1.99
Cc1cc(NC(=O)N(CCO)C2CCCCC2)ccn1	-1	0.12
O=C(O)[C@H]1CCCN1C(=O)C1CC1c1cccc(C(F)(F)F)c1 (stereo partly specified)	-8	1.15
CC(C)(CCC#N)CN1CCC(O)(C(F)(F)F)CC1	5	-0.88
Cc1ccc(S(=O)(=O)N[C@@H]2CCCCC[C@H]2O)c(C)c1	4	-0.62
O=C(c1ccncc1F)N1CCCC[C@@H]1CCc1ccccn1	-23	2.29
Cc1cc(Br)c(F)cc1NC(=O)N1CC2CCC(C1)O2	-6	1.16
O=C(c1ccccc1C(F)(F)F)N1CCC(=C2CCC2)CC1	-8	1.2
NC(=O)Cc1n[nH]c(C2(N3CCCC3)CCCC2)n1	-2	0.33
